Sequences with one replicate were seen in a single cluster, so their values are uncertain.
System: ATP
Assay: switch fluorescence ratio, 500 uM ATP over buffer (Cy3 cluster intensity, sum of 5 cycles each) (fold (ratio)); higher = stronger signal-on switching upon ATP binding; sequences stand for … in TCGTCGGCAGCGTCAGATGTGTATAAGAGACAGTTTTTTTTTTTTTTTTTTTTTTTTT…TC
Settings: aptamer strand: ATP DNA aptamer (quencher-CACCTGGGGGAGTATTGCGGAGGAAGG + anchor), 100 nM annealed; ATP concentration: 500 uM; one replicate
Summary of the method: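 The quencher-labelled ATP aptamer, at 100 nM, was annealed to Cy3-labelled switching-strand clusters on a modified Illumina MiSeq flow-cell. The clusters were imaged in selection buffer, then after 15 min with 500 uM ATP at 22 °C, and this buffer/ATP cycle ran five times with NaOH stripping and re-annealing between runs. Per-cluster fluorescence ratios, summed target-cycle over summed buffer-cycle Cy3 intensity, were averaged per switch-domain sequence. Clusters outside 100-1000 RFU were excluded.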
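Note: ATP exposure 15 min at 22 °C before imaging.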

Sequence | switch fluorescence ratio
GGGACTTTCG | 0.968
TGCTTTTGTT | 0.947
AGATATCTCT | 1
GCTGACTAAC | 1.12
CCGGTGACTC | 1.88
CGCTAAATGC | 4.52
GAGCAGGGAA | 1.02
TCATATCGGA | 0.976
GCCAAAACCG | 1.05
GTGTTCAATT | 0.984
ACAATTGGGT | 1.01
TGGGGACGGC | 0.976
GACGCGAGTG | 1.12
GTCTGAAGAG | 1.01
AGTTAAATTG | 0.985
AATTAGTCGC | 1.03
CATAGTGTCA | 0.97
AGAGTGTTCA | 1.01
TTCACGTTA | 1.28
GGGTTAACCA | 0.983
CGGGATTAA | 0.975
ACAGCGGCGT | 1.02
CTACTCTAGC | 1.15
AATTACAACT | 1.03
TGTTCTAAAT | 1.02

Sequence | switch fluorescence ratio
CGTGCGGAGA | 1.08
TACGACTTAA | 1.18
AGGGTAGGAA | 1.06
CGGGTCCAAT | 0.963
CATTGAAGGG | 0.956
TTCGTTCAA | 1.65
GACAGAAGAA | 1.01
AAGAGGCTTA | 1.02
CAAACCTTGA | 1.43
AGTTTAGGAT | 0.953
AGTCTGGTTA | 0.947
CCAAGATTTC | 1
TCGGCAGGTG | 2.52
CACTTGGGAC | 1.02
CTTTAACCGG | 1.07
ATTTTCGACG | 1.06
CGGCGCTCG | 1
TTCGGGTGTC | 1
TTAACGCACT | 1.95
TGGGCGCAGA | 0.984
CAGACTAAT | 0.964
AACGAATCGT | 0.988
TGCTGCTGTA | 1
CTGTCCCGAT | 0.99
CTTATTTAAA | 0.988

Sequence | switch fluorescence ratio
ACCGGACCGC | 1.76
TGTGTGTTCT | 1.02
TTCTAGGAAA | 0.978
TTACGCGAAT | 1.06
GAAGTTTGT | 1
AATCGACTTT | 0.996
ATTTTGAGG | 0.949
TTCTGGTCTG | 0.993
GCCCAGTTCT | 1
AAATTTGTCT | 0.96
CGTTCATAGC | 1.05
TGGTTTTTCG | 0.959
AGAGCGATTG | 1.02
TCGAACGTC | 1.16
GGTTGGCGGC | 1
ACAACCCCGC | 1.41
GAGTTCTTGC | 1
AAGGGTCTGT | 0.965
TGGATGTTTT | 0.955
CTTAGGCAAT | 2.47
CACAAAGCGT | 1.03
AATGGTTAGG | 0.97
GTTTTTGAAC | 0.997
TCGAAGGTGT | 1.03
GATGCAAGTC | 1.28

Sequence | switch fluorescence ratio
CAAGCAGGTT | 1
ATGTTGGATT | 0.959
CTCGGTACCA | 0.998
GGACCGCGCT | 1.13
GGCCGGTCAA | 0.936
GGATCTCGCC | 1.08
AAGAATAGGG | 0.979
CGGCGGCCCA | 0.988
GGTACAATTT | 1.02
CGTTCAGATG | 1.05
AACCCTAGCG | 1.02
GCATGTGTCT | 0.977
GCACCTTTTT | 1.2
GGACATGTGA | 0.999
GTTACAAGCT | 1.05
TAGTTGCGCC | 1.07
TACTATGTAT | 0.971
AATCTATGAA | 1.02
TACTCCAAAA | 4.1
ACGTAGGCGT | 1.03
AGTAGAAGGA | 0.979
ATGCTTCC | 2.12
TCGACGACAT | 1.86
TCAGGAGTTA | 0.982
CTAATCGTTT | 1.02

Sequence | switch fluorescence ratio
TATGCATAAG | 0.968
TAGATCCGAT | 0.96
ATACTTTCAT | 1.01
GAGGTACGAT | 0.996
ACCGGCTACT | 1.09
ACTATATGTC | 1.04
TTCAAATT | 1.02
TCAGGGATGT | 0.997
GCGGGGATTG | 0.987
GCTTATCTGT | 1
CCAGTAGCTA | 1.31
GACTCTCAGC | 1.05
AGTACGGGA | 1.08
ATGGTTCACG | 1.04
TTCTCGTTAG | 1.15
TTGGGATCGC | 0.997
AGAATCTACC | 1.07
CCGTTGAGGA | 1.01
TTGGAAGCGC | 1.04
TGTTTTTATG | 0.988
ATGCCCGTTT | 0.974
CAACGTACCG | 1.27
AAGGCACGTT | 1.01
AAGGGTATGA | 1.06
GTCGCACCCT | 1.06

Sequence | switch fluorescence ratio
GGCTGAAACA | 0.998
TGTGTATAAA | 1.02
GATAAACTTT | 0.984
AACAGCACCT | 1.37
CCAAGTAGT | 1
GCCCGTGACG | 1.02
ATAAGCAACG | 1.06
GAAACTATGC | 1.09
GCTTAAGAAC | 0.969
GACTCTCTTT | 0.973
GGACGTAGAG | 0.994
TCGTGTGCCG | 1.07
ACACAAGAGC | 0.98
AGATCAGTCT | 1
CGCTATATC | 4.07
AGTCTATCTA | 1.04
ACAGAATGCG | 1.07
ACTTTTTTGT | 0.998
CTGTACCACG | 1.06
AAGGGAAAAT | 1.01
CGTGTTACTT | 1.03
CTAAGCGTAG | 1.01
GATGGAGTCG | 0.994
GGGAGGTTAA | 0.976
ATGCGTACTC | 1.14

Sequence | switch fluorescence ratio
CTCTTGGGCA | 1.01
GTAGACTTGA | 1.02
TAGATGACAA | 0.943
GAAAAGCGTG | 0.963
CGTACCTAAT | 1.03
CAGAACCTAG | 1.05
TTGGTCCTCG | 1.03
TAATAGCCGT | 1.01
ATTTTGAGCG | 0.983
ATTAGTGCGG | 0.967
ATACGAGTT | 1.02
TCAATGTCAT | 0.993
CACTTATTTT | 1.02
TGTTCGATAA | 0.989
CCGGCAAGT | 2.19
GTGAAGAGCT | 1.01
TCTGGACAGC | 0.979
TGGTCCGTCG | 1.08
GTCGATCTCG | 0.975
ATCTTTACGC | 0.996
AGGGCAAGCT | 0.983
CCGCTAGGCA | 1.09
CTGGGCGGG | 0.989
GACATTGTAT | 0.966
TATAGTATTC | 1

Sequence | switch fluorescence ratio
TTTTAAGCAC | 1.28
AGGTAGCCGA | 0.932
ATAGCGCGCG | 1.01
GTATCGATGA | 0.985
TATGATAGTC | 0.991
TTTGTTGTT | 1
GCGGCAGAAA | 0.999
GGTACGCTGT | 1.05
AAACCCTTAT | 1.06
ATGTATATTC | 1.01
AAGTCCCGAC | 1.04
ATTTTCGAGA | 0.977
GGTCTCTTCA | 1.04
AAATCAGAGT | 0.999
GCATCAGATC | 0.99
ACCCAGCGGC | 1.13
CCCCGATTAT | 3.32
AGAGTTGGGG | 0.985
CCGTCATCAA | 1.56
CAAAGATGTT | 0.988
TAAACTACAA | 1.02
TTTAAGCACT | 1.22
GGTCTGGATG | 0.97
CCGGTACTGA | 1.01
TCTCAGAGCT | 1.04

— the supplement of paper PMC10126150
